Where a name gives a salt, the structure may show the parent alone. In all, about 2,000 compounds were measured (“fractional viability relative to vehicle”: median about 0.92, lowest 2% from about 0.11 on). The list shows a part of the results.
System: TYKNU
Assay: fractional viability relative to vehicle; TYKNU is a high-grade serous ovarian cancer line; higher = less growth inhibition
Conditions: 72 h, genotype: OPA1 knockout (sgOPA1 #2)
Method in brief: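 TYKNU control cells or lentiCRISPRv2 knockout derivatives were plated at 500 cells per well in duplicate into drug-stamped 384-well plates holding a ~2100-compound library at 2 or 10 μM. Culture was in RPMI 1640 with 10% FBS at 37 °C in 5% CO2, with 72 h of drug treatment. Viability was measured by Cell Titer Glo luminescence, and the averaged duplicate treatment wells were normalised to duplicate control wells at the same plate position.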

SMILES | fractional viability (2uM) | fractional viability (10uM)
CC1CCc2cc(F)cc3c(=O)c(C(=O)O)cn1c23 (stereo not drawn) [Flumequine] | 0.845 | 0.926
C[C@@H](O)[C@H]1C(=O)N2C(C(=O)OCOC(=O)C(C)(C)C)=C(SC3CN(C4=NCCS4)C3)[C@H](C)[C@H]12 [Tebipenem Pivoxil] | 1.11 | 0.951
CCCCOc1ccc(OCCCN2CCOCC2)cc1 [Pramoxine HCl] | 1.14 | 1
COc1c(O)cc2c(c1O)[C@@H]1O[C@H](CO)[C@@H](O)[C@H](O)[C@H]1OC2=O [Bergenin] | 1.18 | 0.976
Nc1cccc(-c2cc3c(Oc4cccc(O)c4)ncnc3[nH]2)c1 | 1.38 | 0.937
CC(C)[C@H]1CC[C@H](C(=O)N[C@H](Cc2ccccc2)C(=O)O)CC1 [Nateglinide] | 0.956 | 0.914
COc1ccc(-n2nc(C(N)=O)c3c2C(=O)N(c2ccc(N4CCCCC4=O)cc2)CC3)cc1 [Apixaban] | 1.03 | 1.14
COc1ccc(C(C)=O)c(O)c1 [Paeonol] | 1.19 | 0.933
COc1ccccc1OCCNCC(O)COc1cccc2[nH]c3ccccc3c12 (stereo not drawn) [Carvedilol] | 0.985 | 0.674
CC(C)c1nc(CN(C)C(=O)N[C@H](C(=O)N[C@@H](Cc2ccccc2)C[C@H](O)[C@H](Cc2ccccc2)NC(=O)OCc2cncs2)C(C)C)cs1 [Ritonavir] | 1.05 | 1.02
Cc1nc2ccc(-n3ncc(C(=O)c4cc5ccccc5[nH]4)c3N)cc2[nH]1 | 0.778 | 0.938
CCCCC(=O)O[C@H]1CC[C@H]2[C@@H]3CCc4cc(O)ccc4[C@H]3CC[C@]12C [Estradiol valerate] | 1.04 | 0.369
N#Cc1c(O)c2c(-c3ccc(-c4ccccc4O)cc3)csc2[nH]c1=O | 1.07 | 1.07
N=C(N)c1ccc(OCCCCCOc2ccc(C(=N)N)cc2)cc1 [Pentamidine] | 0.854 | 0.621
Cc1[nH]c2ccccc2c1CCNC(=O)c1cccs1 | 0.809 | 0.942
O=c1cc(-c2cccc3c2Sc2ccccc2S3)oc(N2CCOCC2)c1 | 1.25 | 1.2
Fc1ccc(C(c2ccc(F)cc2)N2CCN(C/C=C/c3ccccc3)CC2)cc1 [Flunarizine 2HCl] | 0.836 | 0.759
Oc1ccc([C@H]2COc3cc(O)ccc3C2)cc1 [Equol] | 0.956 | 0.833
Cc1ccc(Nc2c(F)cccc2Cl)c(CC(=O)O)c1 [Lumiracoxib] | 0.828 | 0.865
O=C([C@@H](Cc1cccc(C(F)(F)F)c1)NS(=O)(=O)c1cc(F)c2c(c1)CCNC2)N1CCCC1 | 0.855 | 0.889
Nc1nc(Cl)nc2c1ncn2[C@H]1C[C@H](O)[C@@H](CO)O1 [Cladribine] | 0.96 | 0.613
O=C(C=Cc1ccccc1)NC(NC(=S)Nc1ccc(Cl)cc1)C(Cl)(Cl)Cl (stereo not drawn) | 0.891 | 0.336

SMILES | fractional viability (2uM) | fractional viability (10uM)
Cc1nc(Nc2cnn(C3CCNCC3)c2)nc2c1N(C)C(=O)c1cc3ccccc3cc1N2C | 0.8 | 0.647
OCCOCCN1CCN(C2=Nc3ccccc3Sc3ccccc32)CC1 [Quetiapine Fumarate] | 1.14 | 0.988
COc1cccc2c1C(=O)c1c(O)c3c(c(O)c1C2=O)C[C@@](O)(C(=O)CO)C[C@@H]3O[C@H]1C[C@H](N)[C@H](O)[C@H](C)O1 [Doxorubicin (Adriamycin)] | 0.738 | 0.726
CC1(C)S[C@@H]2[C@H](NC(=O)[C@H](N)c3ccc(O)cc3)C(=O)N2[C@H]1C(=O)O [Amoxicillin Sodium] | 0.994 | 0.909
CC1(C)S[C@@H]2[C@H](NC(=O)[C@H](N)c3ccc(O)cc3)C(=O)N2[C@H]1C(=O)O [Amoxicillin] | 0.956 | 0.882
Cc1cc(C(=O)NOCCO)c(Nc2ccc(I)cc2F)n(C)c1=O | 0.504 | 0.43
COc1ccccc1C(=O)Nc1cc2c(cc1N1CCCC1)n(C)c(=O)n2C | 0.874 | 1.14
O=C(CCc1ccc(O)cc1)c1c(O)cc(O)cc1O[C@@H]1O[C@H](CO)[C@@H](O)[C@H](O)[C@H]1O [Phlorizin] | 0.803 | 0.881
C=C[C@]1(C)C[C@@H](OC(=O)CS[C@@H]2C[C@H]3CC[C@@H](C2)N3C)[C@]2(C)[C@H](C)CC[C@]3(CCC(=O)[C@H]32)[C@@H](C)[C@@H]1O [Retapamulin] | 1.33 | 1.33
Oc1ncnc2[nH]ncc12 [Allopurinol] | 1.17 | 1.11
CN(N=O)C(=O)NC1C(O)OC(CO)C(O)C1O (stereo not drawn) [Streptozotocin (STZ)] | 0.956 | 1.02
C=CC(=O)Nc1cccc(C)c1Nc1ncc2cc(-c3c(Cl)c(OC)cc(OC)c3Cl)ccc2n1 | 0.676 | 0.37
C[C@]12CCC(=O)C=C1CC[C@@H]1[C@@H]2[C@@H](O)C[C@@]2(C)[C@H]1CC[C@]2(O)C(=O)CO [Hydrocortisone] | 1.25 | 1.06
COc1ccc(CCN(C)CCCC(C#N)(c2ccc(OC)c(OC)c2)C(C)C)cc1OC (stereo not drawn) [Verapamil HCl] | 1.04 | 0.965
Cc1onc(-c2ccccc2)c1-c1ccc(S(N)(=O)=O)cc1 [Valdecoxib] | 1.06 | 0.899
CCCc1cc(=O)[nH]c(=S)[nH]1 [Propylthiouracil] | 1.01 | 0.889
O=C(Nc1ccccc1)c1cc([N+](=O)[O-])ccc1Cl | 1.11 | 0.918
C=C1C(=O)O[C@@H]2/C=C(\C)CC/C=C(\C)CC[C@@H]12 [Costunolide] | 1.15 | 0.522
CO/N=C(\C(=O)N[C@@H]1C(=O)N2C(C(=O)OCOC(=O)C(C)(C)C)=C(/C=C\c3scnc3C)CS[C@H]12)c1csc(N)n1 [Cefditoren Pivoxil] | 0.91 | 0.921
COc1ccc([C@@H]2CC(=O)c3c(O)cc(O[C@@H]4O[C@H](CO[C@@H]5O[C@@H](C)[C@H](O)[C@@H](O)[C@H]5O)[C@@H](O)[C@H](O)[C@H]4O)cc3O2)cc1O [Hesperidin] | 1.16 | 1.06
O=c1cc(N2CCOCC2)oc2c(-c3cccc4c3sc3ccccc34)cccc12 | 0.867 | 0.693
CC(C)(C(=O)O)c1ccc(C(O)CCCN2CCC(C(O)(c3ccccc3)c3ccccc3)CC2)cc1 (stereo not drawn) [Fexofenadine HCl] | 1.01 | 0.867

Source: the supplement of paper PMC5919970
